This is one part of the list. The full chains were built here from the parent and the listed change. Inactive controls read about 0.05.
B1: TEV protease; numbered along this chain (parent)
chain: MGESLFKGPRDYNPISSSICHLTNESDGHTTSLYGIGFGPFIITNKHLFRRNNGTLVVQSLHGVFKVKDTTTLQQHLVDGRDMIIIRMPKDFPPFPQKLKFREPQREERICLVTTNFQTKSMSSMVSDTSCTFPSGDGIFWKHWIQTKDGQCGSPLVSTRDGFIVGIHSASNFTNTNNYFTSVPKNFMELLTNQEAQQWVSGWRLNADSVLWGGHKVFMVKPEEPFQPVKEATQL

Variants of: B1
Assay: raw area under fraction-flipped curve 0-4 h after induction (AUC4h, not background-subtracted), DNA-recorder readout of cleavage of the substrate (dimensionless); higher = more cleavage of the substrate by the protease variant
Conditions: temperature: 34 °C; time window: 0-4 h after rhamnose induction
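Further: Bxb1 expression induced with 0.2% (w/v) L-rhamnose at OD600 near 0.5, cultures sampled hourly, flipped fraction per protease–substrate barcode pair counted by paired-end Illumina sequencing.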

| Variant | area with substrate ENLYDQS | area with substrate ENLYEQS | area with substrate ENLYIQS | area with substrate ENLYKQS | area with substrate ENLYNQS | area with substrate ENLYTQS | area with substrate ENLYVQS | area with substrate ENLYWQS | area with substrate ENLYGQS | area with substrate ENLYHQS | area with substrate ENLYLQS | area with substrate ENLYMQS | area with substrate ENLYPQS | area with substrate ENLYQQS | area with substrate ENLYRQS | area with substrate ENLYSQS | area with substrate ENLYYQS | area with substrate ENLYCQS |
| --- | --- | --- | --- | --- | --- | --- | --- | --- | --- | --- | --- | --- | --- | --- | --- | --- | --- | --- |
| S130N | 0.0747 | 0.083 | 0.125 | 0.0558 | 0.0957 | 0.0525 | 0.137 | 0.15 | – | – | – | – | – | – | – | – | – | – |
| I43T | 0.0572 | 0.0516 | 0.0941 | 0.0543 | 0.0547 | 0.0708 | 0.0895 | 0.0507 | 0.053 | 0.0576 | 0.065 | 0.0727 | 0.0413 | 0.0541 | 0.0504 | 0.0682 | 0.0307 | – |
| K90L | 0.0617 | 0.0736 | – | 0.0592 | 0.0714 | – | 0.17 | – | – | 0.0616 | – | – | – | – | 0.0594 | – | – | – |
| T44Y | 0.0474 | 0.0531 | 0.0521 | 0.0336 | 0.0448 | – | 0.0635 | – | 0.0614 | 0.0482 | 0.0434 | 0.0434 | 0.0405 | – | 0.0457 | 0.0395 | – | – |
| S17N | 0.055 | 0.0581 | 0.105 | 0.0433 | 0.0505 | – | 0.101 | 0.0823 | 0.0663 | 0.072 | 0.0825 | – | 0.0563 | – | 0.0573 | 0.0864 | 0.0654 | 0.0807 |
| V113A | 0.0546 | 0.0568 | 0.101 | 0.0386 | 0.0619 | 0.0597 | – | 0.0581 | 0.0525 | 0.0763 | 0.074 | – | 0.0574 | – | 0.0637 | 0.0689 | 0.0811 | – |
| E108I | 0.0496 | 0.0604 | 0.0621 | 0.0632 | 0.0566 | 0.0584 | 0.0536 | 0.0612 | 0.0563 | 0.0569 | – | – | – | 0.0429 | – | – | – | – |
| M83I | 0.0617 | – | – | 0.0602 | – | – | – | – | 0.0586 | 0.0557 | 0.0729 | – | 0.0678 | – | 0.0636 | – | 0.0554 | – |
| N52R | 0.0542 | – | – | 0.0563 | 0.0599 | – | 0.0682 | – | – | 0.0632 | – | – | – | 0.0454 | – | 0.0463 | 0.0479 | 0.0727 |
| I15W | 0.0581 | 0.0664 | 0.106 | 0.0674 | 0.0665 | 0.0853 | – | – | 0.0715 | 0.0715 | 0.0914 | 0.0829 | 0.0728 | 0.058 | 0.0579 | 0.0601 | 0.0569 | 0.0841 |
| G35P | – | 0.015 | 0.0496 | – | – | – | – | 0.04 | – | – | – | – | – | 0.047 | 0.0453 | – | – | 0.0313 |
| I85D | 0.0326 | 0.0614 | – | – | 0.04 | – | – | – | 0.0429 | 0.0366 | – | 0.0402 | 0.0424 | – | 0.049 | – | – | 0.0318 |
| Y179T | 0.0575 | 0.0668 | – | 0.0645 | 0.0793 | – | 0.0501 | – | 0.0472 | 0.0601 | – | 0.0552 | – | 0.0806 | – | 0.0623 | 0.0662 | 0.0643 |
| H62M | 0.0748 | – | 0.0803 | 0.1 | 0.104 | – | – | – | – | 0.0718 | – | 0.0919 | – | 0.0736 | 0.0638 | – | – | – |
| L61K | 0.0573 | 0.0834 | 0.113 | 0.0662 | 0.0766 | – | 0.121 | – | – | 0.0569 | 0.0072 | 0.105 | – | – | 0.0707 | – | – | 0.0878 |
| L61D | 0.056 | 0.0765 | 0.132 | 0.053 | 0.0692 | – | 0.13 | 0.0903 | 0.0751 | – | 0.0861 | 0.0873 | – | 0.0606 | 0.062 | 0.0707 | 0.062 | – |

| Variant | area with substrate ENLYDQS | area with substrate ENLYEQS | area with substrate ENLYIQS | area with substrate ENLYKQS | area with substrate ENLYNQS | area with substrate ENLYTQS | area with substrate ENLYVQS | area with substrate ENLYWQS | area with substrate ENLYGQS | area with substrate ENLYHQS | area with substrate ENLYLQS | area with substrate ENLYMQS | area with substrate ENLYPQS | area with substrate ENLYQQS | area with substrate ENLYRQS | area with substrate ENLYSQS | area with substrate ENLYYQS | area with substrate ENLYCQS |
| --- | --- | --- | --- | --- | --- | --- | --- | --- | --- | --- | --- | --- | --- | --- | --- | --- | --- | --- |
| L190W | 0.0611 | 0.0656 | – | – | 0.0656 | – | – | 0.0674 | 0.0664 | 0.0465 | – | 0.0801 | – | – | – | 0.0525 | 0.0709 | – |
| M125K | 0.0588 | 0.0778 | – | 0.0211 | 0.084 | – | – | – | 0.128 | 0.101 | – | 0.0844 | 0.0795 | 0.0669 | 0.0604 | 0.082 | 0.0673 | – |
| D161H | 0.073 | 0.0612 | 0.0926 | – | – | – | 0.074 | 0.0427 | – | 0.0759 | 0.0601 | – | – | 0.0684 | 0.0621 | 0.119 | – | – |
| P9M | 0.0712 | 0.0706 | 0.0902 | 0.0663 | 0.0586 | – | 0.112 | – | 0.0688 | 0.0775 | 0.0907 | 0.0864 | 0.0891 | – | 0.0674 | – | 0.0742 | – |
| R102D | 0.0395 | 0.0899 | 0.0551 | 0.0583 | 0.0497 | – | 0.0585 | – | 0.0443 | 0.0605 | – | – | 0.0417 | 0.0714 | – | – | – | – |
| D137K | 0.0615 | – | 0.137 | 0.055 | 0.0804 | – | – | 0.0723 | 0.0628 | 0.0758 | – | – | 0.0887 | 0.063 | – | – | 0.0683 | – |
| S154P | – | 0.0578 | 0.0563 | 0.0585 | 0.0499 | – | – | – | 0.059 | 0.0602 | – | – | 0.0668 | 0.048 | 0.0742 | – | – | 0.0356 |
| S60Q | 0.0541 | 0.0443 | – | 0.0586 | 0.0644 | 0.0982 | – | 0.0673 | 0.0635 | 0.0593 | 0.0747 | – | – | 0.0618 | – | – | 0.0542 | 0.0727 |
| S60D | 0.0234 | 0.0512 | – | – | 0.0576 | 0.0665 | 0.106 | 0.0628 | 0.0799 | 0.0637 | – | 0.0752 | 0.0621 | 0.0655 | 0.0507 | – | 0.0458 | 0.0669 |
| T70D | 0.0584 | – | – | 0.0578 | 0.0631 | 0.0733 | – | – | 0.0572 | 0.0642 | – | 0.0578 | – | – | 0.0645 | 0.0572 | – | – |
| G37N | 0.046 | 0.0488 | – | 0.0674 | – | – | – | 0.0619 | – | 0.0613 | 0.0468 | 0.056 | – | 0.0669 | 0.0466 | 0.0553 | – | – |
| R106H | 0.077 | – | 0.117 | 0.0603 | 0.0953 | 0.0658 | 0.11 | 0.119 | 0.0541 | 0.0785 | – | 0.094 | 0.0777 | 0.0717 | 0.0618 | 0.0755 | 0.0657 | – |
| R51L | 0.0531 | 0.0547 | – | 0.0662 | 0.0926 | 0.11 | 0.111 | – | – | 0.0672 | – | 0.0699 | – | 0.0636 | 0.0557 | 0.0744 | 0.0434 | – |
| L22R | 0.0461 | 0.0376 | 0.0432 | 0.0402 | 0.0463 | – | 0.0618 | 0.0342 | 0.0497 | 0.0542 | – | 0.0422 | 0.0692 | 0.044 | 0.0598 | 0.0468 | 0.0473 | 0.0358 |
| N116K | 0.0747 | – | 0.154 | 0.049 | 0.0677 | – | – | – | – | – | – | 0.0867 | – | – | – | – | – | – |

Reference: the supplement of paper PMC12217912
